These results are taken from patent US8748182B2, “Mutant proteins and methods for producing them” (Heptares Therapeutics Limited, priority 2007, dated 2014).

Where two headings read alike, the source gives them in different places.

Series [1] is described as follows: Stability of βAR-m23 and βAR34-424 in different detergents (Ni-NTA partially purified). The note with it: for active receptor after exchange into OG, NG or LDAO: purification at 6° C. It is filed as physicochemical. As for the experimental part: FIGS. 6A-6C Stability of βAR-m23 and βAR34-424 in five different detergents. […] Assays were carried out as described in the Methods and the Tm is shown at the intersection between the curves and the discontinuous line. Results are from duplicate measurements in a representative experiment performed in parallel.
Membranes prepared from E. coli expressing βAR-m23 or βAR34-424 were solubilised in DDM, bound to Ni-NTA agarose then washed with either DDM, decylmaltoside (DM), octylglucoside (OG), lauryldimethylamine oxide (LDAO) or nonylglucoside (NG). […] In contrast, functional βAR-m23 was still present in all detergents and the Tm could be determined. As expected, the smaller detergents were considerably more denaturing than either DDM (Tm 52° C.) or DM (Tm 48° C.), with Tms of 25° C. (NG), 23° C. (LDAO) and 17° C. (OG). The difference in Tm between βAR-m23 and βAR34-424 is about 20° C., irrespective of whether the receptors were solubilised in either DDM or DM; […] . The selection strategy used for the generation of βAR-m23 was chosen deliberately to be based upon thermostability, because it is far simpler to apply than selecting for stability in detergents of increasing harshness.
(§1) Receptors were eluted in 2×100 μl of buffer (0.4 M NaCl, 1 mM EDTA, 250 mM imidazole pH 8, plus the relevant detergent). […] .
Single point binding assays contained 20 mM Tris pH 8, 0.4 M NaCl, 1 mM EDTA, 0.1% DDM (or corresponding detergent) with 50 nM [^3H]-DHA and 20-100 μg membrane protein in a final volume of 120 μl; equilibration was for 1 h at 4° C. Thermostability was assessed by incubating the binding assay mix, with or without [^3H]-DHA at the specified temperature for 30 minutes; reactions were placed on ice and [^3H]-DHA added as necessary and equilibrated for a further hour. […] Non-specific binding was determined in the presence of 1 μM of s-propranolol. […] Radioactivity was counted on a Beckman LS6000 liquid scintillation counter and data were analyzed by nonlinear regression using Prism software (GraphPad).

Series [2] is described as follows: Thermostability assay of detergent-solubilised βAR34-424 and mutants expressed in E. coli ([3H]-DHA binding after heating 30 min).
The next series has as its target βAR34-424 (Meleagris gallopavo, UniProt P07700, C116L). How it is done:
FIGS. 8A and 8B Saturation binding assays of membranes of βAR34-424 and βAR-m23. Binding assays were performed as described in “Methods” using [^3H]-dihydroalprenolol (DHA) as radioligand; βAR34-424 (a) and βAR-m23 (b). Scatchard plots are shown as insets along with the corresponding values for Bmax and KD. Data points are from duplicates of two independent experiments for each protein.
[…] . This is consistent with the observation that none of the mutations in βAR-m23 correspond with amino acids believed to be implicated in ligand binding. […] . From a crystallisation perspective, this is an added bonus to thermostabilisation, because it is essential to have a conformationally homogeneous protein population for the production of diffraction-quality crystals.
as §1
Non-specific binding was determined in the presence of 1 μM of s-propranolol. […] .

Turning to “βAR34-424: truncated β1 adrenergic receptor from turkey, residues 34-424, C116L, C-terminal tag of 10 histidines; parent receptor”, the figures for the “active receptor after exchange into OG, NG or LDAO” value in series [1] and in series [1] (listed as βAR) were “no active receptors” and “not possible to measure any activity”, respectively. Besides, the “predicted Tm in NG” value in series [1] (extrapolated from the Tm difference) is “about 5 °C”. Also, in series [2] (32° C. for 30 min, [3H]-dihydroalprenolol), the “antagonist binding remaining after heating, of the unheated control” value was “approximately 50%”. Moreover, the “Tm (° C.)” value in series [2] (Table 1, heated 30 min without ligand, then [3H]-DHA binding, DDM-solubilised, E. coli, mean ± S.E. from duplicates) was found to be 31.7 ± 0.1 °C. In addition, in series [2] ([3H]-DHA bound during the heating step), the “increase in Tm with bound antagonist versus without antagonist” value stood at 6 °C.
The Kd is the equilibrium constant for the complex coming apart. For “1-[4,6-propyl-^3H]-dihydroalprenolol [[^3H]-dihydroalprenolol]”, the Kd at βAR34-424 (membranes, n=2, read-out: KD of [3H]-dihydroalprenolol) was found to be 2.8 ± 0.1 nM; at βAR34-424 (semipurified receptor, read-out: KD for [3H]-DHA binding) it was 3.7 nM.
